In the supplement of paper PMC9174493:
Some of the results follow. Single values of this set are uncertain. Values with irradiation are relative to irradiated vehicle.

These compounds were tested on A549-Dual (assay: NF-kB reporter (SEAP) activity, viability-corrected, relative to vehicle (fold change vs vehicle); higher = more activation of STING-IRF / NF-kB immune response reporter). Conditions: 0.1 µM; irradiation: none.
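Further: viability correction based on the alamar blue assay, with concentrations leaving 10% survival or less dropped.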

Row | SMILES | NF-kB reporter
1 | CCN(CC)Cc1cc(Nc2ccnc3cc(Cl)ccc23)ccc1O.Cl.Cl [Amodiaquine hydrochloride] | 1.12
2 | Cc1c(N)c(=O)n(-c2ccccc2)n1C [4-Aminoantipyrine] | 1.05
3 | Cn1cnc2c(F)c(Nc3ccc(Br)cc3F)c(C(=O)NOCCO)cc21 | 1.7
4 | CC1(C)C2CCC1(C)C(O)C2 (configuration not stated) [Borneol] | 1.38
5 | CC1CC2C3CCC4=CC(=O)C=CC4(C)C3(Cl)C(O)CC2(C)C1(OC(=O)c1ccco1)C(=O)CCl (configuration not stated) [Mometasone furoate] | 0.643
6 | CCN(CC)CCCC(C)Nc1ccnc2cc(Cl)ccc12.O=P(O)(O)O.O=P(O)(O)O (configuration not stated) [Chloroquine Phosphate] | 0.999
7 | COc1cc2c(cc1Cc1cccc(Cl)c1F)c(=O)c(C(=O)O)cn2C(CO)C(C)C (configuration not stated) [Elvitegravir (GS-9137, JTK-303)] | 1.09
8 | O=c1[nH]c(=O)n(C2CC(O)C(CO)O2)cc1F (configuration not stated) [Floxuridine] | 1.5
9 | CC1(C)CCC(CN2CCN(c3ccc(C(=O)NS(=O)(=O)c4ccc(NCC5CCOCC5)c([N+](=O)[O-])c4)c(Oc4cnc5[nH]ccc5c4)c3)CC2)=C(c2ccc(Cl)cc2)C1 [Venetoclax (ABT-199, GDC-0199)] | 1
10 | Cc1ccc(NC(=O)c2ccc(CN3CCN(C)CC3)cc2)cc1Nc1nc(-c2cccnc2)cs1 [Masitinib (AB1010)] | 1.12
11 | CCc1cc(/C(C)=N/OCc2ccc(C3CCCCC3)c(C(F)(F)F)c2)ccc1CN1CC(C(=O)O)C1 [BAF312 (Siponimod)] | 0.586
12 | CN(C)C(=O)COC(=O)Cc1ccc(OC(=O)c2ccc(NC(=N)N)cc2)cc1.CS(=O)(=O)O [Camostat Mesilate] | 1.27
13 | Nc1nc(=S)c2[nH]cnc2[nH]1 [Thioguanine] | 1.07
14 | OCC1OC(Oc2cc(O)cc(/C=C/c3ccc(O)cc3)c2)C(O)C(O)C1O (configuration not stated) [Polydatin] | 2.71
15 | COc1cc(N2CCC(N3CCN(C)CC3)CC2)ccc1Nc1ncc(Cl)c(Nc2ccccc2P(C)(C)=O)n1 | 0.934
16 | Cc1cccn2c(=O)c(-c3nnn[n-]3)cnc12.[K+] [Pemirolast potassium] | 0.901
17 | Cc1cccc(N(C)C(=S)Oc2ccc3ccccc3c2)c1 [Tolnaftate] | 0.93
